Paper PMC9983901
Results are given in words; binding and its absence hold for the method and conditions named. For some assays here: Binding seen in cells or lysates may run through a third protein. Some results given as binding are weak or reduced against the parent protein; the word gives no strength. Sequences can lack the tags named with a protein. Values belong to the binder of their own block, whether it stands above or below them.

Assays:
[1] = target: T1, SYP-3 full length (Gal4 DNA binding domain fusion) (C. elegans) (UniProt O62238); experiment: two-hybrid; GRAS-1 constructs in pVV213 (activation domain), SYP constructs in pVV212 (Gal4 DNA binding domain); strains mated on YPD, selected on SC Leu- Trp-
T1 sequence: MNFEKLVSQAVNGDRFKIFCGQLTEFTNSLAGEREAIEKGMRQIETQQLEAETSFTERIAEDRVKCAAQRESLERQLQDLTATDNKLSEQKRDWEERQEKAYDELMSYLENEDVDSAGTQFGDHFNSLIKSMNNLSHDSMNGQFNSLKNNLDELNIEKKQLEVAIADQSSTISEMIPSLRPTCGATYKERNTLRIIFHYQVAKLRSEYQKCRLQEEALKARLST

GRAS-1::GFP (C. elegans) = target: T2, GRAS-1::GFP (C. elegans) (UniProt Q93654); experiment: co-IP; immunoprecipitation with a GFP antibody from whole worm lysates (gras-1::gfp, syp-2::gfp, wild type); Western blot with anti-SYP-3
T2 sequence: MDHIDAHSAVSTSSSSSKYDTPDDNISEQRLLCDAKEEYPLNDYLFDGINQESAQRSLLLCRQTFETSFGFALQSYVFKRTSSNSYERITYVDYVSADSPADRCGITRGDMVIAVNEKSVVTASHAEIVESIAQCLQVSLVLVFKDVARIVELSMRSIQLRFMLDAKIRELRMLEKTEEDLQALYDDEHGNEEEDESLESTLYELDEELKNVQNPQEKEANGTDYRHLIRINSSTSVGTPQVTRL

[2] = target: T3, SYP-4 full length (Gal4 DNA binding domain fusion) (C. elegans) (UniProt Q9N5K3); experiment: two-hybrid; GRAS-1 constructs in pVV213 (activation domain), SYP constructs in pVV212 (Gal4 DNA binding domain); strains mated on YPD, selected on SC Leu- Trp-
T3 sequence: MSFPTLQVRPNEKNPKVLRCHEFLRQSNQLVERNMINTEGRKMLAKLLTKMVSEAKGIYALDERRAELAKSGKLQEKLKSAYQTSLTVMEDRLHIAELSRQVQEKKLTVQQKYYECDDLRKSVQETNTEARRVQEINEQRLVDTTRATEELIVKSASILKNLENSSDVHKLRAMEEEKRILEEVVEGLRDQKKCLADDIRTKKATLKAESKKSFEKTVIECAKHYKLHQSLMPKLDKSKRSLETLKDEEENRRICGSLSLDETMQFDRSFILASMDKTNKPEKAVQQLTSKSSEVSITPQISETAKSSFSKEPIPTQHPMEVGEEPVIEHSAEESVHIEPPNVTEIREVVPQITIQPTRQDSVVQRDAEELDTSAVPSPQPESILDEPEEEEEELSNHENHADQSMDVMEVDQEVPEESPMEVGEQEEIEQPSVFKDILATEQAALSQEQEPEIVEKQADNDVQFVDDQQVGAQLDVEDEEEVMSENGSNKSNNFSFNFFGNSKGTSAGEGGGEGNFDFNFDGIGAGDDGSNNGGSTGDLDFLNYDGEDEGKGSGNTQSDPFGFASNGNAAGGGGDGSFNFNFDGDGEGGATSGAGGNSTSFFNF

B1: GRAS-1 ΔNt^69-245 (domain or fragment, UniProt Q93654 69-245)
chain: FGFALQSYVFKRTSSNSYERITYVDYVSADSPADRCGITRGDMVIAVNEKSVVTASHAEIVESIAQCLQVSLVLVFKDVARIVELSMRSIQLRFMLDAKIRELRMLEKTEEDLQALYDDEHGNEEEDESLESTLYELDEELKNVQNPQEKEANGTDYRHLIRINSSTSVGTPQVTRL
binding [1]: no binding

B3: GRAS-1 ΔCt^1-163 (domain or fragment, UniProt Q93654 1-163)
chain: MDHIDAHSAVSTSSSSSKYDTPDDNISEQRLLCDAKEEYPLNDYLFDGINQESAQRSLLLCRQTFETSFGFALQSYVFKRTSSNSYERITYVDYVSADSPADRCGITRGDMVIAVNEKSVVTASHAEIVESIAQCLQVSLVLVFKDVARIVELSMRSIQLRFM
binding [1]: binds

Next, values leading:

binding (GRAS-1::GFP (C. elegans)): binds
B2: SYP-3 (protein, UniProt O62238 1-224)
chain: T1 sequence

binding [1]: binds | binding [2]: no binding
B4: GRAS-1 full length (activation domain fusion) (protein, UniProt Q93654 1-245)
chain: T2 sequence
